{
  "source": "paper PMC4336329",
  "about": "(PLoS ONE, 2015)",
  "note": "Hit rate of the full screen: of about 310,000 compounds, about 2,200 (0.71%) showed an effect of 50% or more. Effects have a minus sign here. Some of the results follow.",
  "data": [
    {"target": "human ether-à-go-go-related gene (hERG) potassium channel (human, UniProt Q12809)", "sequence (Q12809 whole entry, looked up)": "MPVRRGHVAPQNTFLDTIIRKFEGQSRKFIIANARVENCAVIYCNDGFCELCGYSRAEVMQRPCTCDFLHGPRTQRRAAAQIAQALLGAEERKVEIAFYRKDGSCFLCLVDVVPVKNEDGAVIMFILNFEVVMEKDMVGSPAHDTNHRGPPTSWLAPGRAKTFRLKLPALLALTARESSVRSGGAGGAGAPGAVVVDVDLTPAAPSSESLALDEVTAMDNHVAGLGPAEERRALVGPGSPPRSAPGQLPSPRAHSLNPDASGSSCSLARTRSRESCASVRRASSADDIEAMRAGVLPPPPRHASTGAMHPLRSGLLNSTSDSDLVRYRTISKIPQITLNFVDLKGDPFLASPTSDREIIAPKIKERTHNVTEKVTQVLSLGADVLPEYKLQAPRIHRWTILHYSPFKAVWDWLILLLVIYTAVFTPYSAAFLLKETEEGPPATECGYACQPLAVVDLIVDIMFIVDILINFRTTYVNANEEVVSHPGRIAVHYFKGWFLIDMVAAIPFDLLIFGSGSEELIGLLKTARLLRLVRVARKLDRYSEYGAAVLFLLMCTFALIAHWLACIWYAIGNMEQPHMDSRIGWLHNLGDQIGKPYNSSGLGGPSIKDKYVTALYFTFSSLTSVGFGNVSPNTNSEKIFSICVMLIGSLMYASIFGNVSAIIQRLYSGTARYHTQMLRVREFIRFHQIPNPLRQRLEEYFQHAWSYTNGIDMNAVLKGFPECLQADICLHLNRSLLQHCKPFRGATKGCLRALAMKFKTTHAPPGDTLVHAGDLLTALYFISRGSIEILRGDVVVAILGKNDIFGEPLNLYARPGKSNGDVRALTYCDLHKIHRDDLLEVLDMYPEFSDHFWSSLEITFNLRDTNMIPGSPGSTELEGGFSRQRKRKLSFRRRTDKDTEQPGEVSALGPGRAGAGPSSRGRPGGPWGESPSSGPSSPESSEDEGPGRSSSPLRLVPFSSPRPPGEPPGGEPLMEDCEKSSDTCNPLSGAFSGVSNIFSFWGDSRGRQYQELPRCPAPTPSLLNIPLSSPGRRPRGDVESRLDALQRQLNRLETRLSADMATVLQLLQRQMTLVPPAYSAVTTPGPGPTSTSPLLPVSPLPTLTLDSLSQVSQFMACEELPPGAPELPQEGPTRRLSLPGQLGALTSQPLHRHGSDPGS", "assay": "primary screen, population patch clamp on CHO cells stably expressing hERG", "units": {"hERG current change (%, negative = inhibition) at 1uM": "%"}, "values": [
      {"compound": "Cc1ccc(OCCNS(=O)(=O)c2ccc(N3CCCC3=O)cc2)cc1", "hERG current change (%, negative = inhibition) at 1uM": 7.63},
      {"compound": "Cc1cc(C(F)F)nn1CC(=O)NCc1ccco1", "hERG current change (%, negative = inhibition) at 1uM": 18.1},
      {"compound": "CCc1ccc(C(=O)Nc2nc3ccccc3[nH]2)cc1", "hERG current change (%, negative = inhibition) at 1uM": 12.4},
      {"compound": "O=C(CSc1nnc(-c2ccco2)n1-c1ccccc1)NCCc1ccccc1", "hERG current change (%, negative = inhibition) at 1uM": -29.6},
      {"compound": "O=C(O)/C=C/c1cccc2c1OCCO2", "hERG current change (%, negative = inhibition) at 1uM": -4.76},
      {"compound": "CCC(=O)N1CCN(c2ccc(NC(=S)NC(=O)COc3ccccc3)cc2)CC1", "hERG current change (%, negative = inhibition) at 1uM": -9.33},
      {"compound": "O=C(CSCc1ccccc1)N1CCc2ccccc21", "hERG current change (%, negative = inhibition) at 1uM": 7.33},
      {"compound": "CC1Oc2ccccc2N(CC(=O)c2cccc(Cl)c2)C1=O", "note": "(stereo not drawn)", "hERG current change (%, negative = inhibition) at 1uM": -1.55},
      {"compound": "COC(=O)c1cc(OC)nc2ccc(Br)cc12", "hERG current change (%, negative = inhibition) at 1uM": 2.46},
      {"compound": "O=C(CSc1ccc(Br)cc1)N1CCN(S(=O)(=O)c2ccccc2)CC1", "hERG current change (%, negative = inhibition) at 1uM": 0.246},
      {"compound": "Cc1cccnc1NC(=O)CSc1ccc2c(c1)OCCO2", "hERG current change (%, negative = inhibition) at 1uM": 8.52},
      {"compound": "Br.O=S1(=O)C=CC(Sc2nc3ccccc3[nH]2)C1", "note": "(stereo not drawn)", "hERG current change (%, negative = inhibition) at 1uM": 6.35},
      {"compound": "COc1ccc(C2C(C#N)=C(N)OC3=C2C(=O)CC(C)(C)C3)cc1Cn1cc([N+](=O)[O-])cn1", "note": "(stereo not drawn)", "hERG current change (%, negative = inhibition) at 1uM": -1.19},
      {"compound": "O=C(NC1CCCC1)C(c1ccc(F)cc1)N(Cc1ccc(F)cc1)C(=O)CCl", "note": "(stereo not drawn)", "hERG current change (%, negative = inhibition) at 1uM": 10.9},
      {"compound": "CSc1nc(-c2ccccc2)nc(NC(=O)C(C)C)c1C(C)=O", "hERG current change (%, negative = inhibition) at 1uM": 8.87},
      {"compound": "CC(C)(C)Sc1ccc(/C=N/O)cc1[N+](=O)[O-]", "hERG current change (%, negative = inhibition) at 1uM": 11.5},
      {"compound": "COc1ccc(S(=O)(=O)N2CCN(C)CC2)c2ccccc12", "hERG current change (%, negative = inhibition) at 1uM": 9.59},
      {"compound": "CC(=O)Nc1ccc(OCC(O)CN2CCN(c3ccc(Cl)cc3)CC2)cc1", "note": "(stereo not drawn)", "hERG current change (%, negative = inhibition) at 1uM": -0.944},
      {"compound": "Cc1ccc(CNC(=O)CSc2nc3ccccc3c(=O)n2CCCO)cc1", "hERG current change (%, negative = inhibition) at 1uM": -51.3},
      {"compound": "CCC(=O)Nc1sc(C(=O)N2CCCCC2)c(C)c1C#N", "hERG current change (%, negative = inhibition) at 1uM": 5.29},
      {"compound": "CN(Cc1ccccc1)c1nc2c(c(=O)[nH]c(=O)n2C)n1C", "hERG current change (%, negative = inhibition) at 1uM": 4.57},
      {"compound": "COc1ccc(CNC(=O)COc2cc(=O)n(C)c3ccccc23)cc1", "hERG current change (%, negative = inhibition) at 1uM": 7.49},
      {"compound": "Cc1cccc(N2CCCn3c2nc2c3c(=O)n(CCN3CCOCC3)c(=O)n2C)c1", "hERG current change (%, negative = inhibition) at 1uM": 17.4},
      {"compound": "CCCCn1c(=O)c(CCC(=O)OCC(=O)Nc2cc(Cl)ccc2OC)nc2ccccc21", "hERG current change (%, negative = inhibition) at 1uM": 12.6},
      {"compound": "CO[C@@]12[C@H](COC(N)=O)C3=C(C(=O)C(C)=C(N)C3=O)N1C[C@@H]1N[C@@H]12", "hERG current change (%, negative = inhibition) at 1uM": 7.86},
      {"compound": "O=C(COc1ccc(S(=O)(=O)NCc2ccccc2)cc1Cl)NCc1ccccn1", "hERG current change (%, negative = inhibition) at 1uM": 8.36},
      {"compound": "COc1ccc(N(CC(=O)NCCC2=CCCCC2)S(=O)(=O)c2ccc(C)cc2)cc1OC", "hERG current change (%, negative = inhibition) at 1uM": -1.21},
      {"compound": "N#CC1=C(N)Oc2n[nH]c(-c3ccccn3)c2C1c1c(F)cccc1Cl", "note": "(stereo not drawn)", "hERG current change (%, negative = inhibition) at 1uM": -0.473},
      {"compound": "CC(=O)Oc1ccc2c(C)cc(=O)oc2c1", "hERG current change (%, negative = inhibition) at 1uM": 9.62},
      {"compound": "COC(=O)c1ccc(NC(=O)CSC2=NC(=O)C(c3ccccc3)C(=O)N2)cc1", "note": "(stereo not drawn)", "hERG current change (%, negative = inhibition) at 1uM": -1.58},
      {"compound": "CCOP(=S)(OCC)N1CCOCCOCCN(P(=S)(OCC)OCC)CCOCCOCC1", "hERG current change (%, negative = inhibition) at 1uM": 2.15},
      {"compound": "C=CCN1C(=O)C(CC(=O)O)S/C1=N/N=C/c1ccc(N(CC)CC)cc1", "note": "(stereo not drawn)", "hERG current change (%, negative = inhibition) at 1uM": 0.67},
      {"compound": "CCOP(=O)(OCC)C(NC(=O)Nc1cccc(Cl)c1)c1ccccc1", "note": "(stereo not drawn)", "hERG current change (%, negative = inhibition) at 1uM": 1.07},
      {"compound": "NNC(=O)c1cccc(S(=O)(=O)Nc2cccc(C(F)(F)F)c2)c1", "hERG current change (%, negative = inhibition) at 1uM": 11.7},
      {"compound": "Cc1cc(C)nc(SCC(=O)N(C)CC(=O)Nc2ccccc2Br)n1", "hERG current change (%, negative = inhibition) at 1uM": -5.76},
      {"compound": "CC1(C)CC(=O)C=C(c2ccc3[nH]ccc3c2)C1", "hERG current change (%, negative = inhibition) at 1uM": 8.85},
      {"compound": "Cc1ccccc1Nc1nnc(SCC(=O)N(C)C2CCS(=O)(=O)C2)s1", "note": "(stereo not drawn)", "hERG current change (%, negative = inhibition) at 1uM": 3.52},
      {"compound": "CN(C)CCCNC(=O)c1ccc(-c2ccccc2)cc1", "hERG current change (%, negative = inhibition) at 1uM": -11.5},
      {"compound": "O=C(c1cc2nc(-c3ccccc3)cc(-c3ccccc3)n2n1)N1CCCC1", "hERG current change (%, negative = inhibition) at 1uM": 10.2},
      {"compound": "O=C(Cn1c2[n+](c3ccc(C(F)(F)F)cc31)CCCCC2)Nc1c(F)cccc1F.[Cl-]", "hERG current change (%, negative = inhibition) at 1uM": 9.69},
      {"compound": "CN(C)c1ccc(C(C(=O)NC2CCCC2)N(C(=O)c2ccco2)C2CC2)cc1", "note": "(stereo not drawn)", "hERG current change (%, negative = inhibition) at 1uM": 12.3},
      {"compound": "O=C(c1ccccc1)N1CCN(c2nc3ccc([N+](=O)[O-])cc3s2)CC1", "hERG current change (%, negative = inhibition) at 1uM": -14},
      {"compound": "CCc1ccc2ncc(S(=O)(=O)c3ccc(C)c(C)c3)c(N3CCCC3)c2c1", "hERG current change (%, negative = inhibition) at 1uM": 11.9},
      {"compound": "O=C(O)c1cc(O)c2c(c1)[C@H]([C@H]1c3cc(C(=O)O)cc(O)c3C(=O)c3c(O[C@@H]4O[C@H](CO)[C@@H](O)[C@H](O)[C@H]4O)cccc31)c1cccc(OC3O[C@H](CO)[C@@H](O)[C@H](O)[C@H]3O)c1C2=O", "note": "(stereo partly drawn)", "hERG current change (%, negative = inhibition) at 1uM": 7.86},
      {"compound": "O=C(Nc1cc([N+](=O)[O-])ccc1Cl)C1CC1", "hERG current change (%, negative = inhibition) at 1uM": 8.39},
      {"compound": "COc1cccc(CNC(=O)C2CCN(S(=O)(=O)c3ccccc3)CC2)c1", "hERG current change (%, negative = inhibition) at 1uM": -8.89},
      {"compound": "Cc1c(NC(=O)N(C)C)c(=O)n(-c2ccccc2)n1C", "hERG current change (%, negative = inhibition) at 1uM": 11.1},
      {"compound": "Cc1cc(C=C2C(=O)NC(=O)NC2=O)c(C)n1-c1cccnc1", "hERG current change (%, negative = inhibition) at 1uM": 7.58},
      {"compound": "CCOC(=O)N1CCN(S(=O)(=O)c2ccc(OC)c(Cl)c2Cl)CC1", "hERG current change (%, negative = inhibition) at 1uM": 3.18},
      {"compound": "Cc1ccc(S(=O)(=O)Nc2nc(C)c(NC(=O)Nc3ccc(Cl)cc3Cl)s2)cc1", "hERG current change (%, negative = inhibition) at 1uM": 8.41},
      {"compound": "CCOC(=O)CSc1nccc(N(C)C)c1C#N", "hERG current change (%, negative = inhibition) at 1uM": 13.7},
      {"compound": "CCOC(=O)c1ccc(NC(=O)c2ccccc2)cc1", "hERG current change (%, negative = inhibition) at 1uM": 12.4},
      {"compound": "Cc1nn(Cc2ccccc2)c(Cl)c1/C=N/NC(=O)c1cccnc1", "hERG current change (%, negative = inhibition) at 1uM": 5.03},
      {"compound": "CN(Cc1c(C(=O)N/N=C/c2cc(F)ccc2F)nnn1-c1nonc1N)C1CCCCC1", "hERG current change (%, negative = inhibition) at 1uM": 7.43}
    ]}
  ]
}
